Test results as given in US20230149407A1, “Methods of Treating Coronavirus Disease 2019” (priority 2020, published 2023).

System: Covid-19 pneumonia

In the case of `C[C@@H]1CCN(C(=O)CC#N)C[C@@H]1N(C)c1ncnc2[nH]ccc12` [tofacitinib, 3-((3R,4R)-4-Methyl-3-(methyl(7H-pyrrolo[2,3-d]pyrimidin-4-yl)amino)piperidin-1-yl)-3-oxopropanenitrile], the “Cure (resolution of fever, cough, and need for ventilatory or oxygen support)” value (N = 144) is reported as 134 (93.1), the “Death or respiratory failure at day 28” value (N = 144) is reported as 6 (4.2) and the “Mortality until day 28 - no. (%)” value (N = 144) is reported as 4 (2.8) no. (%). For the same compound, the “Respiratory failure until day 28 - no. (%)” value (N = 144) was 22 (15.3) no. (%), the “Status of being alive and not hospitalized (categories 7 to 8 of the ordinal scale) at day 14” value (N = 144) was 121 (84.0) and the “Status of being alive and not hospitalized (categories 7 to 8 of the ordinal scale) at day 28” value (N = 144) was 134 (93.1). For the same compound, the “Status of being alive and not using mechanical ventilation or ECMO (categories 3 to 8 of the ordinal scale) at day 14” value (N = 144) was 135 (93.8), the “Status of being alive and not using mechanical ventilation or ECMO (categories 3 to 8 of the ordinal scale) at day 28” value (N = 144) was 139 (96.5) and the “Status of being hospitalized, requiring supplemental oxygen (categories 1 to 4 of the ordinal scale) at day 28” value (N = 144) was 10 (6.9). For the same compound, the “Status of being in the ICU or on ventilatory support at day 28” value (N = 144) was 4 (2.9), the “NIAID ordinal scale at day 14, Distribution - no (%)” value (category 1) was 2 (1.4) no (%) and the “NIAID ordinal scale at day 28, Distribution - no (%)” value (category 1) was 4 (2.8) no (%). The “NIAID ordinal scale at day 14, Distribution - no (%)” value (category 2) was 7 (4.9) no (%), the “NIAID ordinal scale at day 28, Distribution - no (%)” value (category 2) was 1 (0.7) no (%) and the “NIAID ordinal scale at day 14, Distribution - no (%)” value (category 3) was 1 (0.7) no (%). The “NIAID ordinal scale at day 28, Distribution - no (%)” value (category 3) was 1 (0.7) no (%), the “NIAID ordinal scale at day 14, Distribution - no (%)” value (category 4) was 7 (4.9) no (%) and the “NIAID ordinal scale at day 28, Distribution - no (%)” value (category 4) was 4 (2.8) no (%). For the same compound, the “NIAID ordinal scale at day 14, Distribution - no (%)” value (category 5) was 5 (3.5) no (%), the “NIAID ordinal scale at day 28, Distribution - no (%)” value (category 5) was 0 (0) no (%) and the “NIAID ordinal scale at day 14, Distribution - no (%)” value (category 6) was 1 (0.7) no (%). For the same compound, the “NIAID ordinal scale at day 28, Distribution - no (%)” value (category 6) was 0 (0) no (%), the “NIAID ordinal scale at day 14, Distribution - no (%)” value (category 7) was 11 (7.6) no (%) and the “NIAID ordinal scale at day 28, Distribution - no (%)” value (category 7) was 5 (3.5) no (%). The “NIAID ordinal scale at day 14, Distribution - no (%)” value (category 8) was 110 (76.4) no (%), the “NIAID ordinal scale at day 28, Distribution - no (%)” value (category 8) was 129 (89.6) no (%) and the “Death or respiratory failure until day 28 - no. (%)” value (primary outcome, tofacitinib 10 mg twice daily up to 14 days, N = 144) was 26 (18.1) no. (%).

Read-outs that look alike come from different tables or passages of the source.
